Results reported in PubChem BioAssay AID1963576 (National Center for Advancing Translational Sciences (NCATS), 2024).
Screen size: about 46,000 compounds; about 60 (0.1%) were called active. Another 3% or so got no clear call; they are omitted. Calls follow the shape of the dose curve; as a rule, active = well fitted inhibition curve with a large enough effect; inconclusive = small, poorly fitted or top-dose-only effect; inactive = no such curve, though single readings can be large or run the other way. This is one part of the list.

Experiment: Primary qHTS assay for Inhibitors of ovarian cancer metastasis using an organotypic tumor microenvironment (TME) model. Also: nearly all actives have a fitted effect of over 65% in size.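 As to activity change, negative = inhibition: plate controls were DMSO wells for no effect and tomatine positive control wells for full effect.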
Conditions: SKOV3ip1-GFP adhesion/invasion on 3D omental model, fluorescence; series mostly up to 45.8 µM; activity change, negative = inhibition: at the top concentration
Method in brief: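 qHTS, 4-pt dose (0.36-46 umol/L); SKOV3ip1-GFP, 1,200 cells/well, no FBS; primary omental fibroblast/mesothelial co-culture 48 h pre-grown; 2 h RT + 16 h 37 C; PBS wash, 4% PFA; GFP count 488/509 nm.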

Activity change, negative = inhibition, inactive:
COC(=O)c1ccccc1NC(=O)c1nc(S(=O)(=O)Cc2ccccc2F)ncc1Cl 3.76%
Cc1ccc(-n2nc(C(=O)N3CCN(c4ccccc4)CC3)c(=O)n(C)c2=O)cc1 0.998%
Cc1cccc(Cc2cnc(NC(=O)c3ccc4c(c3)CC(c3ccccc3)OC4=O)s2)c1 (stereo unspecified) -3.9%
Cc1ccc2oc(C(=O)Nc3ccc(S(=O)(=O)N(C)Cc4ccccc4)cc3)cc(=O)c2c1 -3.05%
CCc1ccccc1NC(=O)C1CCN(c2nn3c(=O)cc(C)nc3s2)CC1 2.46%
COc1cccc(CC(=O)NCc2ccc3c(c2)CCN3C(C)=O)c1 -4%
Cc1ccccc1Cn1c(C)c(CNCc2ccccc2)c(C(=O)O)c1C 15.4%
CC(NC(=O)c1ccc2nc(CCc3ccccc3)oc2c1)c1ccccc1 (stereo unspecified) 4.97%
O=C(NCCc1ccc(Cl)cc1)c1ccc2c(c1)N(Cc1ccccc1)CCS2 -1.23%
COc1ccc(NC(=O)c2nc(SCc3ccccc3F)ncc2Cl)cc1 -2.32%
CCOc1ccc(NC(=O)Cn2c(CCC(=O)O)ccc2-c2ccc(Cl)cc2)cc1 -3.58%
Cc1ccc(C)c(Cn2c3ccccc3c3cnn(CC(=O)N4CCCCC4)c(=O)c32)c1 1.69%
CCCN1C(C(=O)c2ccccc2)=C(OC(=O)c2ccc(F)cc2)c2ccccc2S1(=O)=O 5.98%
Cc1ccc(NC(=O)CCS(=O)(=O)c2cccc3nonc23)c(C)c1 -19.4%
CC(C)c1ccc(C2=CC(c3cccc(Cl)c3)n3ncnc3N2)cc1 (stereo unspecified) -17.3%
Cc1nn(CCC(=O)NC(C)C)c(=O)c2nn(-c3ccccc3)c(C)c12 -0.485%
Cc1cccc(-n2c(=O)c3ccccc3n(Cc3ccccc3C#N)c2=O)c1 5.65%
COc1cc2c(C(=O)N3CCN(c4cccc(C)c4)C(C)C3)cn(CC(C)C)c(=O)c2cc1OC (stereo unspecified) -8.62%
COc1ccc(Cl)cc1NC(=O)c1cc(S(=O)(=O)N2CCc3ccccc32)cn1C 13.4%
Cc1ccc2nc(NCc3ccccc3Cl)c3nnnn3c2c1 2.19%
COc1cccc(Cc2nc3ccccc3nc2SCC(=O)N2CCCCC2C)c1 (stereo unspecified) 1.68%
CCc1nnc(NC(=O)c2nc(S(C)(=O)=O)ncc2Cl)s1 -7.84%
COc1cc(NC(=O)CCc2c(C)n(C)c3cc(-c4ccccc4C)nn3c2=O)cc(OC)c1OC -0.346%
O=C(CN1C(=O)CSc2ccc(S(=O)(=O)N3CCCCC3)cc21)NCc1ccc(F)cc1Cl -0.358%
O=C(NCc1ccco1)c1ccc2c(c1)N(Cc1ccc(F)cc1)C(=O)c1ccccc1S2=O (stereo unspecified) 2.12%
CCOc1ccccc1NC(=O)c1sc2nc3c(cc2c1N)CN(Cc1ccccc1)CC3 -1.71%
COc1cc2ccccc2cc1C(=O)Nc1ccc2oc(-c3cc(Br)ccc3Cl)nc2c1 1.21%
Cc1nc(N)sc1-c1ccnc(Nc2ccc(N3CCOCC3)cc2)n1 -18.5%
COc1cccc(C(=O)CN2CCN(S(=O)(=O)c3ccc(Cl)cc3)CC2)c1 5.84%
COc1ccc(C(CNC(=O)c2ccc(C)cc2)N2CCOCC2)cc1 (stereo unspecified) 2.5%
Cc1noc(NS(=O)(=O)c2ccc(N)cc2)c1C 22.7%
O=C(c1cccs1)N1CCCc2cc(NS(=O)(=O)c3ccc(Cl)cc3)ccc21 -9.85%
Cc1cccc(C(=O)NCC(c2ccc3c(c2)OCO3)N2CCOCC2)c1 (stereo unspecified) 2.96%
O=C(c1ccco1)c1cn(CCOc2ccc(Cl)cc2)c2ccccc12 5.33%
CCc1cccc2c3c([nH]c12)C(CC)(CC(=O)O)OCC3 (stereo unspecified) -9.27%
COc1ccc(NC(=O)c2cnc(SCC(=O)Nc3nc4ccc(C)cc4s3)n(C)c2=O)cc1 28.7%
CC(=O)c1ccc(NC(=O)Cn2c3ncccc3c(=O)n2-c2ccc(C)cc2)cc1 -12.7%
CCC(=O)N1CCc2cc(CNC(=O)Nc3ccc(OC)cc3OC)ccc21 -4.93%
O=C(NCCc1ccccc1)C(=O)NCC(c1cccnc1)N1CCN(c2ccc(F)cc2)CC1 (stereo unspecified) -2.48%
COc1ccccc1-c1cc(C(F)(F)F)nc(S(=O)(=O)CCCC(=O)Nc2cc(Br)ccc2O)n1 -0.925%
CCN(C(=O)CN(C)S(=O)(=O)c1ccc2c(c1)n(C)c(=O)c(=O)n2C)c1cccc(C)c1 -13%
Cc1cccc(-c2noc(-c3ccc(N4CCCC4)c([N+](=O)[O-])c3)n2)c1 1.27%
CCOc1ccc(Nc2nc3ccccc3c3nnc(CC)n23)cc1 3.97%
COc1ccc(NS(=O)(=O)c2ccc3[nH]c4c(c3c2)CCCC4)c(OC)c1 -2.95%
COc1cccc(NC(=O)Cn2c(=O)n(-c3cccc(OC)c3)c(=O)c3c4c(sc32)CCCC4)c1 1.39%
Cc1cc(C)c(Cn2c(=O)n(CCCCCC(=O)NCc3ccc4c(c3)OCO4)c(=O)c3sccc32)c(C)c1 -4.25%
O=C(CSCc1ccc(F)cc1)N1CCN(c2ccccc2)CC1 5.2%
CN(C)c1ccc(C(CNS(=O)(=O)c2cc(F)ccc2F)N2CCOCC2)cc1 (stereo unspecified) 7.54%
CCN(CC)C(=O)c1sc(NC(=O)C2c3ccccc3Oc3ccccc32)c(C(=O)OC(C)C)c1C 3.01%
Cc1ccc(CN(C(=O)c2ccccc2Br)C2CCS(=O)(=O)C2)o1 (stereo unspecified) 3.27%
COc1ccc(NC(=O)CC2C(=O)N(c3ccccc3)C(=O)N2Cc2cccnc2)cc1 (stereo unspecified) -6.25%
CCOc1ccccc1NC(=O)COc1cccc2c(=O)n(CCOC)ccc12 0.548%
Cc1ccc(NC(=O)Nc2cc3c(cc2N2CCCCC2)n(C)c(=O)n3C)cc1Cl 3.29%
Cn1c(=O)c2c(SCC(=O)NCc3ccco3)nc(-c3ccccc3F)nc2n(C)c1=O 0.902%
C[C@@H]1CN(CC(=O)Nc2ccc3c(c2)Cc2cccc(-c4cc(=O)cc(N5CCOCC5)o4)c2S3)C[C@H](C)O1 5.02%
COc1ccc(-c2[nH]ncc2C(=O)NCc2cccc(F)c2)cc1 -1.81%
CCC1CCCCN1S(=O)(=O)c1ccc(N2CCCCS2(=O)=O)cc1 (stereo unspecified) 0.984%
CCOC(=O)c1ccc(NC(=O)c2c(C)oc3nc(C)nc(N4CCCC4)c23)cc1 -12.9%
O=C(CCCc1nc(-c2ccco2)no1)Nc1ccccc1[N+](=O)[O-] 2.08%
COc1cccc(-n2c(=O)c3c4c(sc3n(Cc3ccc(F)cc3Cl)c2=O)CCCC4)c1 4.2%
Cc1c(C(=O)Nc2ccc(Br)cc2F)oc2ccc(S(=O)(=O)N3CCC4(CC3)OCCO4)cc12 4.17%
COc1ccc(NC(=O)c2oc3ccc(S(=O)(=O)N(C)C4CCCCC4)cc3c2C)cc1Cl -2.27%
Cc1ccc(Cl)cc1N1CCN(C(=O)CCSCc2ccccc2F)CC1 -3.44%
COCCNC(=O)c1ccc2nc(CCc3ccccc3)oc2c1 -8.5%
CCc1ccc(NC(=O)CC(c2ccc(C)cc2)N2Cc3ccccc3C2=O)cc1 (stereo unspecified) -2.63%
CCOC(=O)c1[nH]c(C)c(CCC(=O)Nc2ccccc2C(=O)OC)c1C -15%
Cc1cc(OCC(=O)NC(Cc2c[nH]c3ccccc23)C(=O)O)ccc1Cl (stereo unspecified) -1.65%
Cc1cccc(CSc2nc(=O)c3c(n2C)NC(=O)CC3c2cc(F)cc(F)c2)c1 (stereo unspecified) 0.861%
COc1cccc(CNC(=O)c2cccc(-n3c(C)nc4cccnc43)c2C)c1 -2.61%
CC(C)OCCCNC(=O)c1ccc(Cn2c(=O)c3cccn3c3cccnc32)cc1 -2.46%

outcome, inactive:
CCc1ccc(-n2c(=O)c3c4c(sc3n(CC(=O)NCCCOC)c2=O)CCC4)cc1
CN(C)S(=O)(=O)Nc1ccc(-c2cn3ccsc3n2)cc1
CC(C)Oc1ccc(CNC(=O)c2ccc3nc(SCc4ccc(F)cc4)n(C)c3c2)cc1
Cc1ccc(C)c(NC(=O)CCc2c(C)n(C)c3cc(-c4ccccc4C)nn3c2=O)c1
COc1cccc(N2CCN(C(=O)c3ccc(CS(=O)c4cccc(Cl)c4)o3)CC2)c1 (stereo unspecified)
O=C(CSc1nc2c([nH]c3ccccc32)c(=O)n1-c1cccc(Cl)c1)N1CCc2ccccc21
Cc1ccc(-c2noc(CSc3nnc(-c4ccc(Cl)cc4)n3C)n2)cc1
CCc1ccc(C2C(C(=O)Nc3ccccc3)=C(C)Nc3nc(SCC(=O)c4ccc(C)cc4)nn32)cc1 (stereo unspecified)
O=C(CSc1nccn1Cc1ccccc1)NC1CCCC1
COc1ccc(NC(=O)C2CCN(S(=O)(=O)c3c(C)noc3/C=C/c3ccco3)CC2)cc1
O=C(NCc1ccc(Cl)cc1)C(=O)Nc1cccc(Br)c1
CC1CCC(NC(=O)c2ccc3c(c2)N(Cc2cccc(Cl)c2)C(=O)c2ccccc2S3=O)CC1 (stereo unspecified)
COc1ccc(C2=NN(C(C)=O)C(c3cn(-c4ccccc4)nc3-c3cccs3)C2)cc1 (stereo unspecified)
CC(=O)Nc1c(C(=O)Nc2cccc(C)c2)nnn1-c1ccc(C)cc1
Cc1ccc(-n2nc(-c3ccc(F)cc3)c3cnc4cc5c(cc4c32)OCO5)cc1C
Cc1cccc(N2CCN(C(=O)c3oc(=O)c4ccccc4c3-c3ccccc3)CC2C)c1 (stereo unspecified)
Cc1ccc(CNC(=O)c2ccc3c(c2)N(Cc2ccccc2Cl)C(=O)CS3)cc1
Cc1ccc(C2CCN(C(=O)Nc3ccc(Cl)c(Cl)c3)C2)cc1 (stereo unspecified)
Cc1ccc(-c2nnc(Nc3ccccc3)c3ccccc23)cc1S(=O)(=O)N1CCOCC1
CCOc1ccc2nc(N(Cc3cccnc3)C(=O)C3CCCCC3)sc2c1
Cc1cc(N2CCN(c3ccc(F)cc3)CC2)n2nc(-c3ccc(Cl)cc3)nc2n1
CCc1nn(CC(=O)NCCc2ccc(Cl)cc2)c(=O)c2cc3ccccc3n12
Cc1oc2ncn(C)c(=O)c2c1C(=O)Nc1ccc(F)cc1
Cc1oc2ccc(O)c(CN3CCN(C)CC3)c2c1C(=O)Nc1ccccc1
COc1ccc(Cn2c(CCC(=O)Nc3ccc(C)cc3C)nc3cccnc32)cc1
CCn1c(=O)cc(SCC(=O)NCc2ccc(Cl)cc2)c2ccccc21
